According to the supplement of paper PMC12217912:
The other results are listed elsewhere or left out. The full chains were built here from the parent and the listed change. Values near 0.05 are background.

B1: TEV protease; numbered along this chain (parent)
chain: MGESLFKGPRDYNPISSSICHLTNESDGHTTSLYGIGFGPFIITNKHLFRRNNGTLVVQSLHGVFKVKDTTTLQQHLVDGRDMIIIRMPKDFPPFPQKLKFREPQREERICLVTTNFQTKSMSSMVSDTSCTFPSGDGIFWKHWIQTKDGQCGSPLVSTRDGFIVGIHSASNFTNTNNYFTSVPKNFMELLTNQEAQQWVSGWRLNADSVLWGGHKVFMVKPEEPFQPVKEATQL

Variants of: B1
Assay: raw area under fraction-flipped curve 0-4 h after induction (AUC4h, not background-subtracted), DNA-recorder readout of cleavage of the substrate (dimensionless); higher = more cleavage of the substrate by the protease variant
Details: temperature: 34 °C; time window: 0-4 h after rhamnose induction
Protocol: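 In vivo DNA recorder in E. coli TOP10(DE3) ΔrhaA at 34 °C. Each TEVp single-site mutant (parent TEVp 0) is paired with a single-site variant of the 7-mer TEVs (canonical ENLYFQ|S). The substrate sits between flexible linkers in a Bxb1-sfGFP-TEVs-SsrA fusion, so cleavage stabilises Bxb1 and speeds flipping of a recombination array, read by NGS. The value is the raw area under the fraction-flipped curve over 0-4 h after rhamnose induction (AUC4h), with ≥20 reads per time point. It is not background-subtracted; inactive controls average about 0.047.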
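Also: Bxb1 expression induced with 0.2% (w/v) L-rhamnose at OD600 near 0.5, cultures sampled hourly, flipped fraction per protease–substrate barcode pair counted by paired-end Illumina sequencing.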

Variant	area with substrate ENLAFQS	area with substrate ENLDFQS	area with substrate ENLEFQS	area with substrate ENLFFQS	area with substrate ENLGFQS	area with substrate ENLHFQS	area with substrate ENLIFQS	area with substrate ENLKFQS	area with substrate ENLLFQS	area with substrate ENLMFQS	area with substrate ENLNFQS	area with substrate ENLPFQS	area with substrate ENLQFQS	area with substrate ENLRFQS	area with substrate ENLSFQS	area with substrate ENLTFQS	area with substrate ENLVFQS	area with substrate ENLWFQS	area with substrate ENLCFQS
R81T	0.0456	0.0733	0.0568	0.069	0.0601	0.0579	0.0757	0.0528	0.0669	0.0369	0.0657	0.0587	0.0614	0.0593	0.0573	0.0576	0.064	0.0682	–
S32Y	0.0676	0.0702	0.0729	0.0836	0.0646	0.0656	0.0766	0.078	0.0704	0.069	0.0692	0.0662	0.0729	0.0672	0.0675	–	0.0661	0.0734	0.0795
D128L	0.07	0.0783	0.0754	0.11	–	0.079	–	0.0869	–	0.0922	0.0735	0.0597	0.0839	0.102	0.0672	–	0.102	–	–
Q75P	0.0561	0.0767	0.0547	0.0674	0.0758	0.0496	0.0691	0.0644	–	0.0744	0.0659	–	0.0667	0.0518	0.0589	0.0682	0.0695	0.0526	0.0318
N13S	0.0663	0.0663	0.0742	0.0861	0.0361	0.0644	0.0732	0.0769	0.0694	0.0805	0.0668	0.069	0.0677	0.0619	0.0505	–	0.0774	–	0.0812
T176S	0.0603	0.0532	0.0715	0.0565	–	0.0681	–	0.0623	0.0594	–	0.0648	–	–	0.067	0.0723	0.0539	–	–	0.0565
P184L	0.0527	0.0435	–	0.0586	–	–	–	0.0669	–	0.0612	0.0632	–	0.0498	0.0554	–	0.0348	0.0527	0.06	–
P184V	0.0544	0.0712	0.0584	0.064	0.0724	0.0618	–	–	–	–	0.0584	–	0.0565	0.0606	–	0.0638	–	0.0494	0.0083
L48C	0.086	0.0577	0.059	0.0658	–	0.0611	0.0652	0.0815	0.0515	–	0.0814	0.0632	0.0639	–	0.0814	0.0563	–	0.0569	0.0751
L112S	0.0588	0.072	0.0201	0.0674	0.0577	0.0545	–	0.0626	–	–	0.035	0.0666	0.0322	0.0647	0.0752	–	0.106	0.0442	0.0604
P93S	0.0573	0.0548	–	–	–	0.0232	–	0.0765	–	–	0.0529	0.065	–	–	0.0647	–	–	0.0363	–
T176C	0.0574	0.0667	0.0775	0.0585	0.0619	0.0648	–	0.0812	0.0663	–	0.0799	0.0282	0.0657	–	0.0655	–	–	–	–
S32W	0.0513	0.0569	0.0682	0.0794	0.0496	–	0.0721	0.0763	0.068	–	0.061	0.0834	0.0578	0.0744	0.0631	–	0.0905	0.0597	–
T72G	0.0603	0.0509	0.0642	0.0752	–	–	–	0.0716	–	–	–	–	–	0.077	0.0675	–	–	–	0.0732
D208E	0.0765	–	0.0591	0.0862	0.0663	0.0722	–	0.0916	–	0.0785	0.0685	0.114	0.0617	–	–	–	0.0732	–	–
L112H	0.0574	0.0682	0.0493	0.0658	–	0.0643	–	0.0652	0.0559	0.0685	0.0543	0.074	0.0578	0.0673	0.0535	–	0.0748	0.0628	0.0575
D128F	0.065	0.0555	0.0692	0.107	–	–	–	0.105	–	–	0.0708	0.0614	0.0737	0.0842	–	–	0.122	–	–
L48M	0.0651	–	0.103	0.0768	–	0.0573	0.0631	0.0591	0.0684	0.0587	0.0559	0.0699	0.0636	–	0.0632	0.0534	0.0733	0.0436	0.0562
W144P	0.0795	0.0635	0.0738	0.0907	0.0616	0.0839	0.0754	0.0694	0.053	–	0.0613	0.0663	–	–	0.0723	–	–	0.0633	–
N13W	0.0892	0.0652	0.1	0.0803	0.0781	0.0681	0.0761	0.0849	0.09	0.0647	0.0755	–	0.0645	0.0797	0.0565	0.0689	0.0787	–	0.0702
C152F	0.0573	0.062	0.0751	0.0676	0.0507	0.0704	0.061	0.0603	0.069	–	0.0755	0.0461	–	–	0.0584	0.057	0.0615	0.0652	0.0279
S16H	0.0584	0.0684	0.0637	0.0833	0.0615	0.0551	0.0982	0.0707	0.0649	0.0628	0.0669	0.0479	0.061	0.0724	0.0501	0.0462	0.0824	0.0671	0.0739
T30C	0.058	0.0588	0.0642	0.0853	0.0661	0.0671	0.0959	0.0829	0.0722	0.0676	0.065	0.0615	0.0494	0.0293	0.0647	0.0568	0.0894	0.0672	0.0714
L112Q	0.0704	0.071	0.0821	0.064	–	–	0.0682	0.0807	–	–	0.0791	–	0.065	0.0705	–	–	0.0649	0.0598	0.0704
G150E	0.117	0.0627	0.0595	0.0636	–	0.0604	–	0.0591	0.0649	0.0777	0.0615	0.0602	–	0.0623	0.0646	0.0652	0.0515	–	0.0473
